# According to article PMC6919601, “Identification of Plasmodium dipeptidyl aminopeptidase allosteric inhibitors by high throughput screening” (PLoS ONE, 2019):
# Screen size: about 110,000 compounds; about 230 (0.21%) showed an effect of 50% or more. The list shows a part of the results.
# Biological target: DPAP1 (Plasmodium falciparum, UniProt Q8IIJ9)
# Assay: primary screen, percent inhibition; read by cleavage of a fluorogenic dipeptide substrate; higher = more effect of the substance
# Parameters: species or system P. falciparum D10 trophozoite lysates; single well
# 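Further: 30 min substrate incubation versus DMSO and 10 µM JCP410 controls.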
# DPAP1, sequence (Q8IIJ9 whole entry, looked up): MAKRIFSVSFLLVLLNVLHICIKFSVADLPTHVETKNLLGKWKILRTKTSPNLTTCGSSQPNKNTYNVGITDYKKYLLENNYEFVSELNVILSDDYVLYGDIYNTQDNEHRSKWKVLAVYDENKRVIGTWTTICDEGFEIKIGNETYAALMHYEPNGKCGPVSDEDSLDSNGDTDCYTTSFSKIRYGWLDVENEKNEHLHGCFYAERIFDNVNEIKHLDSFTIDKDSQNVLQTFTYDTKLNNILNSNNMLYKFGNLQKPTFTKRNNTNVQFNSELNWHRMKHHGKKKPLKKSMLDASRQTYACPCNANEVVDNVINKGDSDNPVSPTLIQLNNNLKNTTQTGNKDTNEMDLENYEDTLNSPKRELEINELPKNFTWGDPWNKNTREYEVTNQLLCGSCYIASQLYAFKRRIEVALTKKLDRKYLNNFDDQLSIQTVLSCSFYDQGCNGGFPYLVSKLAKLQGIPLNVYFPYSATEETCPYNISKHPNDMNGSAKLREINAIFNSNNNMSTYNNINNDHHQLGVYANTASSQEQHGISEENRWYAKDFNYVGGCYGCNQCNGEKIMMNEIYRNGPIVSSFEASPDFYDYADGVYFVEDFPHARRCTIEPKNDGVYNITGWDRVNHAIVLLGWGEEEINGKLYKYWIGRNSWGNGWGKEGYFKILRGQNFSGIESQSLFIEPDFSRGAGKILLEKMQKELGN
row,SMILES,% Inhibition @ 10 uM
1,CCCS(=O)(=O)N1CCC(C(=O)N2CCOCC2)CC1,3.24%
2,CSc1nc(O)nnc1SCc1ccccc1,4.15%
3,Cc1onc(-c2ccccc2)c1C(=O)Nc1nnc(N(C)Cc2ccccc2)s1,-3.47%
4,Cc1ccc(C)c(N2CCN(C3CC4CCC3C4)CC2)c1 (centres unmarked),4.75%
5,Cc1ccccc1Cn1c(C)c(CNC2CCCCC2)c(C(=O)O)c1C,-9.31%
6,COc1ccc(C(=O)NC2CCCCC2)cc1Br,-2.19%
7,CCc1nn(CC(=O)N(C)C2CCCCC2)c(=O)c2cc3cc(C)ccc3n12,7.53%
8,Nc1ccc2nc(SCC(=O)NCc3ccco3)sc2c1,2.85%
9,CS(=O)(=O)N1CCC(C(=O)Nc2ccc(F)cc2)CC1,1.71%
10,CC/N=c1/scc(-c2ccc(OCC)cc2)n1CC,2.73%
11,O=C(CSc1nc2ccccc2[nH]1)c1ccc(Cl)c(Cl)c1,-5.5%
12,COc1ccc(C(=O)NCCC(C)C)cc1,0.331%
13,CCSc1nnc(NC(=O)c2nc(S(=O)(=O)Cc3ccccc3)ncc2Cl)s1,-0.946%
14,COc1ccc(C2C3=C(O)CCCC3=Nc3nc(S)nc(N)c32)cc1 (centres unmarked),-2.07%
15,CC(C)(C)c1ccc(C(=O)Nc2ccc(CC#N)cc2)cc1,-0.891%
16,CC1(C)Cc2c(sc3ncn4nc(-c5ccccn5)nc4c23)C(C)(C)N1,0.189%
17,CCCc1ccc(-c2nc(N)sc2C)cc1,0.331%
18,CSc1nc(Oc2ccc(NC(C)=O)cc2)cc(-n2ncc(C#N)c2N)n1,-1.06%
19,COc1cc(C(CC(=O)N2CCCCCC2)N2Cc3ccccc3C2=O)cc(OC)c1OC (centres unmarked),0.796%
20,COc1ccc(NC(=O)COc2cccc(C)c2)cc1OC,-1.52%
21,COc1ccc(Cc2cnc(O)nc2O)cc1,-5.62%
22,CCc1cc2c(cc3c(=O)n(CC(=O)NCCCN4CCOCC4)ncn32)s1,1.68%
23,CCOc1ccc(CNCCSc2nnnn2C)cc1OCC,0.00706%
24,CC(C)NC(=O)c1nn2c(C(F)(F)F)cc(-c3ccco3)nc2c1Cl,1%
25,N#Cc1ccccc1NC(=O)NS(=O)(=O)c1ccccc1Cl,-0.962%
26,O=C(Cn1nc(-c2ccccc2)ccc1=O)NCc1cccnc1,3.79%

row,SMILES,% Inhibition @ 10 uM
1,CCc1ccc(Cn2nnc(C(=O)NCc3ccc(Cl)cc3Cl)c2N)cc1,-3.48%
2,COc1ccc(Cn2c(=O)c3cccnc3n(Cc3ccc(C)cc3C)c2=O)cc1,3.32%
3,COc1ccc(CN2CCN(Cc3ccccc3Cl)CC2)cc1,-5.46%
4,C=CCn1c(S)nnc1-c1cc(Cl)ccc1OC,2.09%
5,CCc1ccccc1NC(=O)c1ccc(-c2ccccc2)cc1,3.1%
6,CCOC(=O)N1CCN(c2c(NCc3ccc(OC)cc3)c(=O)c2=O)CC1,1.93%
7,COC(=O)c1ccc2oc(=O)c(-c3nc(-c4cccnc4)no3)cc2c1,-4.02%
8,Cc1nn(-c2ccc(F)cc2)c2c1C(c1ccccc1)C(C#N)=C(N)O2 (centres unmarked),-13.6%
9,COc1nc(C)nc(NC(=O)NS(=O)(=O)Nc2ccc(Cl)c(Cl)c2)n1,-6.52%
10,C=CCNC(=O)c1c(-c2ccccc2)noc1C,-2.09%
11,COc1cc2c(cc1OC)C(c1ccc3c(c1)OCO3)NCC2 (centres unmarked),-0.0372%
12,O=C1C2C3C=CC(C3)C2C(=O)N1CN(CC1CCCO1)CN1C(=O)C2C3C=CC(C3)C2C1=O (centres unmarked),7.78%
13,Cc1cc(Nc2ccc(N)c(C)c2)ccc1N,0.847%
14,COc1ccc(OCC(=O)Nc2cccc(O)c2)cc1,-6.02%
15,O=C(CSc1nc(O)c2ccccc2n1)Nc1cccc(Cl)c1Cl,-0.872%
16,COc1ccc(/C=C(\C#N)c2nc(-c3ccc(Cl)cc3)cs2)cc1,-4.31%
17,CN(Cc1ccccc1)C(=O)C1CCN(c2ncnc3c2nc2n3CCCCC2)CC1,0.244%
18,Cc1nn(CC(=O)NCCC2=CCCCC2)c(=O)c2nn(-c3ccccc3)c(C)c12,2.65%
19,CCn1nc(-c2ccccn2)nc2c(=O)n(C)c(=O)nc1-2,17%
20,CCCCSCCCNC(=O)CSCc1nc(-c2ccc(OCC)cc2)oc1C,2.15%
21,Cc1ccc(C2CC(c3c(F)cccc3Cl)n3ncnc3N2)cc1C (centres unmarked),0.219%
22,Cn1c(=O)c2c(ncn2CCOC(c2ccc(F)cc2)c2ccc(F)cc2)n(C)c1=O,-1.57%
23,COc1cc2c(cc1OC)CN(C/C(Cl)=C/c1ccccc1)CC2,-3.42%
24,Cc1c(Cl)cccc1NC(=O)c1ccc2c(c1)C(=O)N(Cc1cccnc1)C2=O,4.44%
25,Cc1sc(NC(=O)c2cccs2)nc1-c1ccccc1,1.84%
26,C=CCOC(=O)C1=C(C)NC(=O)NC1c1cccc(OCc2ccccc2)c1 (centres unmarked),-1.17%

row,SMILES,% Inhibition @ 10 uM
1,Sc1nc2cnccc2n1Cc1ccccc1,0.774%
2,CCN(CC)c1nnc(N)s1,-6.36%
3,CC(CN1CCCC(O)C1)c1ccccc1 (centres unmarked),-5.26%
4,CC1CCc2c(sc3nc(-c4ccco4)oc(=O)c23)C1 (centres unmarked),0.345%
5,CCC1CCC(NCC2CCCO2)CC1 (centres unmarked),0.0792%
6,O=C(CSc1nnnn1-c1ccccc1)Nc1c(-c2ccccc2)nc2ccccn12,1.03%
7,CC(=O)NC1=C(C(=O)c2ccccc2)N(C)S(=O)(=O)c2ccccc21,0.0598%
8,COCCCNC(=O)CN1Cc2ccccc2C1=O,1.6%
9,O=C(/C=C/c1ccccc1)ONC(=O)c1ccc(Cl)cc1,-11%
10,CC(C)Oc1ccc(-c2cc(C(=O)NCCCN3CCOCC3)c3ccccc3n2)cc1,-12.3%
11,CCOC(=O)c1c(C)c(C(=O)N2CCc3ccccc3C2)c(C)n1CC,-3.44%
12,O=C1C(NC2CCCCC2)=C(N2CCOCC2)C(=O)c2ccccc21,-1.47%
13,O=C(Cn1c2c(c(-c3ccccc3Cl)cc1=O)CCC2)NCCCN1CCOCC1,2.35%
14,O=C1/C(=C/c2ccc(Br)o2)Sc2ccccc21,1.4%
15,CC(=O)NCCc1ccc(S(=O)(=O)N2CCCCC2)cc1,0.413%
16,C=CCn1c(Oc2ccc(C#N)cc2)nc2c1c(=O)n(C)c(=O)n2C,-2.83%
17,CSc1ccccc1NC(=O)C1C2C=CC(O2)C1C(=O)O (centres unmarked),-0.661%
18,C=CCN(Cc1cc(OC)ccc1OC)C(=O)Nc1cccc(Cl)c1,4.11%
19,CC(=O)Nc1ccccc1-c1nn[nH]n1,-3.27%
20,COc1ccc(-n2c(SCC(=O)c3ccc(Cl)cc3)nc3nncc-3c2O)cc1,-0.256%
21,NC(=O)c1cnn(Cc2ccc(Cl)cc2)c1N,1.74%
22,CCC1CCc2nc3sc(C(=O)Nc4ccc(OC)c(OC)c4)c(N)c3cc2C1 (centres unmarked),-10.7%
23,CC(=O)Nc1ccc(NCCC#N)cc1,0.132%
24,Cc1cc(O)nc(SCC(=O)Nc2ccc(Br)cc2)c1C#N,2.55%
25,COc1ccc(-c2noc(N3CCc4ccccc4C3)n2)cc1,-5.05%
26,CCNC(=O)CN(c1ccc(C)cc1)S(=O)(=O)c1ccc(OCC)cc1,-3.25%

row,SMILES,% Inhibition @ 10 uM
1,O=C(COc1c(F)c(F)c(F)c(F)c1F)Nc1nonc1-c1ccccc1,2.29%
2,CC(C)C[C@H](NC(=O)C1(NC(=O)c2ccc(C(C)(C)C)cc2)CCCCC1)C(=O)c1nc2ccccc2o1,-3.04%
3,CCOc1cc2c(cc1OCC)C(c1ccc(C)cc1C)NCC2 (centres unmarked),-3.04%
4,Cc1cccc(N2C(=O)c3cccc4cccc(c34)C2=O)n1,-1.93%
5,CCn1cc(/C=C(\NC(=O)c2ccccc2)C(=O)NCCO)c2ccccc21,4.61%
6,CC(=O)c1cc2c(cc1NC(=O)c1ccc(Cl)cc1)OCCO2,5.7%
7,Cc1ccccc1NC(=O)C1CC(=O)N(c2ccc3c4c(cccc24)CC3)C1 (centres unmarked),-5.27%
8,O=C(NCC12CC3CC(CC(C3)C1)C2)c1nc(-c2cccs2)no1,4.61%
9,CC(C)CNC(=O)c1c2c(nn1C)-c1ccccc1SC2,-9.6%
10,Brc1ccc(-c2ccc(/C=C/c3nc4ccccc4o3)o2)cc1,1.87%
11,Cc1ccc(-n2ncc3c(O)nc(SCC(=O)N4CCOCC4)nc32)cc1,-3.35%
12,Cc1ccc(C2c3c(oc4ccccc4c3=O)C(=O)N2c2nccs2)o1 (centres unmarked),-4%
13,O=C(Cn1cccc1C(=O)c1ccccc1)NCCCN1CCOCC1,-9.79%
14,COc1ccc(/C=C/c2ccncc2)c2ccccc12,-0.0404%
15,Cc1ccc(-c2csc(/C(C#N)=C\Nc3ccccc3)n2)cc1,2.46%
16,COc1ccccc1N1C(=O)CC(Nc2ccc(N3CCOCC3)cc2)C1=O (centres unmarked),5.12%
17,CCC1CCCCN1S(=O)(=O)c1ccc(C)cc1 (centres unmarked),-3.41%
18,Cc1ccc(-c2cc(=O)n3cnnc3s2)cc1,1.76%
19,Cc1nn(Cc2ccc(C(=O)NC3C4CC5CC(C4)CC3C5)o2)c(C)c1Br (centres unmarked),1.93%
20,CC(C)C[C@H](NC(=O)OC1CCCC1)C(=O)NCC#N,-1.41%
21,COCCNC(=O)CN(c1ccccc1)S(=O)(=O)c1ccc(C)cc1,-6.75%
22,CC(NC(=O)c1ccc(C(=O)NC(C)c2ccccc2)cc1)c1ccccc1 (centres unmarked),0.188%
23,O=C(c1ccc(CN2CCOCC2)cc1)N(Cc1ccccc1)Cc1ccccc1,-1.59%
24,COCCCNC(=O)c1cc(-c2ccc(OC)cc2)nc2ccc(C(C)C)cc12,4.36%
25,O=C(Nc1c(C(=O)O)oc2ccc(Cl)cc12)c1ccc(C(F)(F)F)cc1,-2.8%
26,Cc1nn(-c2ccc(Cl)cc2)c(O)c1/C=N/c1ccc(C(=O)N(C)C)cc1,5.58%
